Data reported in the supplement of paper PMC10320760.
Single values of this set are uncertain.

B1: Ydj1; a variant is named by its letters at X, in order (parent)
chain: MVKETKFYDILGVPVTATDVEIKKAYRKCALKYHPDKNPSEEAAEKFKEASAAYEILSDPEKRDIYDQFGEDGLSGAGGAGGFPGGGFGFGDDIFSQFFGAGGAQRPRGPQRGKDIKHEISASLEELYKGRTAKLALNKQILCKECEGRGGKKGAVKKCTSCNGQGIKFVTRQMGPMIQRFQTECDVCHGTGDIIDPKDRCKSCNGKKVENERKILEVHVEPGMKDGQRIVFKGEADQAPDVIPGDVVFIVSERPHKSFKRDGDDLVYEAEIDLLTAIAGGEFALEHVSGDWLKVGIVPGEVIAPGMRKVIEGKGMPIPKYGGYGNLIIKFTIKFPENHFTSEENLKKLEEILPPRIVPAIPKKATVDECVLADFDPAKYNRTRASRGGANYDSDEEEQGGEGVQCXXX

Variants of: B1
Assay: enrichment factor, frequency at 37 °C / frequency at 25 °C (thermotolerance selection) (ratio); higher = more growth at 37 °C, higher likelihood of farnesylation
Details: with Saccharomyces cerevisiae ydj1Δ (yWS304); selective temperature 37 °C; reference temperature 25 °C
Protocol: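 Pooled library of all 8,000 Ydj1-CXXX C-terminal motif variants (native CASQ replaced by C + three variable residues, one codon per amino acid) expressed from a CEN plasmid in S. cerevisiae ydj1Δ (yWS304). The library was grown in SC-Ura liquid to A600 ~2 (~8 generations) at permissive 25 °C or selective 37 °C. Reads from 8 and 7 replicates were pooled and variants counted by NGS. Enrichment factor = frequency at 37 °C / frequency at 25 °C, with a +1 correction; it reports Ydj1-dependent thermotolerance, used as a read-out of farnesylation by yeast FTase.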

Variant	enrichment factor
QDA	0.143
QDC	0.22
RCQ	0.853
RCR	0.131
RCT	0.274
RCS	0.772
RCY	1.18
RCW	0.294
RCV	0.493
NCR	0.103
NCV	0.369
NCW	0.259
NCQ	0.745
NCT	1.24
NCS	0.521
NCY	0.475
DDA	0.116
WDA	1.16
GCT	1.18
GCV	0.931
GCY	1.37
GCW	0.266
GCR	0.171
GCS	1.59

Variant	enrichment factor
ACT	0.424
ACW	1
ACV	0.707
ACR	0.242
ACS	0.91
ACY	1.86
HCY	2.73
HCW	0.431
HCV	0.404
HCS	0.312
HCT	0.796
HCR	0.166
YDA	0.159
ADA	0.169
ADC	0.465
LCR	0.181
LCV	0.356
LCW	0.254
LCT	0.642
LCY	0.499
LCS	0.588
TCW	1.14
TCT	0.869
TCQ	0.719

Variant	enrichment factor
TCV	0.643
TCS	0.624
TCY	0.792
TCR	0.282
SDC	0.143
SDA	0.11
QCS	0.901
QCY	0.526
QCW	0.393
QCT	1.05
QCV	0.431
QCR	0.259
QCQ	0.319
HDA	0.185
HDC	0.238
ECT	0.938
ECY	0.676
ECV	0.491
ECW	0.364
ECS	0.434
ECR	0.259
GDA	0.144
GDC	0.0958
WCR	0.287

Variant	enrichment factor
WCW	0.394
WCV	0.901
WCY	0.724
WCQ	1.22
WCS	1.8
WCT	0.136
LDC	0.463
LDA	0.186
PCS	0.632
PCY	0.679
PCW	0.727
PCT	1.46
PCV	1.25
PCQ	1.04
PCR	0.17
CDC	0.515
CDA	0.183
CCW	3.47
CCS	1.02
CCT	0.621
CCV	0.221
CCR	0.262
CCQ	0.452
CCY	0.252

Variant	enrichment factor
FCT	1.26
FCW	0.599
FCR	0.175
FCY	1.01
FCV	2.32
FCS	0.901
RDA	0.129
RDC	0.476
ICW	0.166
ICR	0.18
ICY	0.851
ICT	1.38
ICS	1.1
ICV	0.837
NDC	0.2
NDA	0.236
YCV	3.85
YCS	3.09
YCT	3.64
YCQ	2.21
YCY	2.56
YCW	0.768
YCR	0.166
TDA	0.21

Variant	enrichment factor
TDC	0.299
KCV	0.258
KCS	0.549
KCT	0.655
KCR	0.133
KCY	0.793
KCW	0.149
EDA	0.201
EDC	0.167
MDC	0.147
MDA	0.204
IDC	0.625
IDA	0.182
FDA	0.151
FDC	0.224
SCQ	0.556
SCV	0.342
SCW	0.303
SCS	0.842
SCT	0.409
SCY	1.04
SCR	0.185
DCY	1.18
DCT	1.28

Variant	enrichment factor
DCW	0.225
DCR	0.143
DCV	0.774
DCS	1.71
DCQ	1.39
PDC	0.16
PDA	0.154
VCW	3.41
VCS	0.846
VCY	2.62
VCV	1.12
VCQ	1.56
VCR	0.659
VCT	2.05
MCS	1.66
MCV	0.863
MCR	0.169
MCY	1.77
MCW	0.823
MCT	1.36
VDA	0.408
KDC	0.197
KDA	0.201
